Laboratory results taken from PubChem BioAssay AID1508642 (National Center for Advancing Translational Sciences (NCATS), 2021).
Screen size: about 43,000 compounds; about 200 (0.47%) were called active. Not shown: some 12% with an inconclusive outcome. Calls follow the shape of the dose curve; as a rule, active = well fitted cell-killing curve with a large enough effect; inconclusive = small, poorly fitted or top-dose-only effect, or effect the other way; inactive = flat fitted curve, though single readings scatter. Some of the results follow.

Assay: Cell viability qHTS assay in S16 Pmp22-F2sN cells; also: nearly all actives have a fitted effect of over 65% in size
Conditions: S16 Pmp22-F2sN Schwann cells viability, CellTiter-Glo, 24 h; series mostly up to 57.5 µM; activity change, negative = cytotoxicity: at the top concentration
Summary of the method: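 Used to flag compounds lowering reporter output through toxicity, this quantitative HTS measures ATP-based CellTiter-Glo luminescence in S16 Pmp22-F2sN Schwann cells after 24 h compound exposure at 37C.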
% is scaled to controls: 0 for no effect and ±100 for the full control effect.

Row | SMILES | activity change, negative = cytotoxicity
1 | CCN(CC)c1ccc(C2C(C(N)=O)=C(C)Nc3nc(SCc4ccccc4Cl)nn32)cc1 (configuration not stated) | inactive: 25.3%
2 | CCOC(=O)c1ccc(N=C2SC(C(=O)Nc3ccccc3)CC(=O)N2C)cc1 (configuration not stated) | inactive: 7.96%
3 | Cc1ccc(NC(=O)c2ccc(C)c(S(=O)(=O)N3CCCCCC3)c2)cc1 | inactive: -0.368%
4 | CCOc1ccc(NC(=O)c2c(NCc3cccs3)sc3c2CCC(C)C3)cc1 (configuration not stated) | inactive: 1.46%
5 | COc1ccc(N2CCN(CC(O)COc3c(OC)cccc3OC)CC2)cc1 (configuration not stated) | inactive: 0.448%
6 | CCN(CC)S(=O)(=O)c1cccc(C(=O)Nc2ccccc2C(=O)Nc2ccc(OC)cc2)c1 | inactive: 13.9%
7 | CCCCc1nn2c(=O)cc(COC(=O)CNC(=O)COc3ccc(C)cc3)nc2s1 | inactive: -5%
8 | Cc1ccc2oc(-c3ccc(NC(=O)c4oc5ccc(Cl)cc5c4C)cc3)nc2c1 | inactive: 12.1%
9 | Cc1ccc(-n2nc(C)c3c(C(F)(F)F)cc(-c4cccnc4)nc32)cc1C | inactive: -2.32%
10 | CCCCN(C)CCCNC(=O)c1cn(CC)c2ccc(S(=O)(=O)N3CCc4ccccc4C3)cc2c1=O | inactive: -26.9%
11 | COc1ccc(NC(=O)Nc2cc(C(=O)NCc3ccc(C)cc3)ccc2N2CCCC2)cc1 | inactive: -1.91%
12 | COc1ccccc1CNC(=O)c1cc(S(=O)(=O)N2CCCC(C)C2)cn1C (configuration not stated) | inactive: 4.08%
13 | Cc1cccc(NC(=O)Cn2c(SCC(=O)NCc3ccccc3)nc3ccccc32)c1C | inactive: -3.7%
14 | O=C(c1cnn(-c2ccc(F)cc2)c1-n1cccc1)N1CCN(c2ccccc2)CC1 | inactive: 14.2%
15 | COc1ccc(OC)c(CNC(=O)NCc2noc3ccc(C)cc23)c1 | inactive: 0.13%
16 | Cc1ccc(-n2nc(C)c3c(C(=O)NCCc4ccc(S(N)(=O)=O)cc4)cc(C)nc32)cc1 | inactive: -1.75%
17 | O=C(CN1C(=O)c2cccnc2Sc2ccccc21)Nc1cc(F)ccc1F | inactive: 6.61%
18 | CCC1CN(C(=O)N2CCC(C(=O)NCc3cccc(F)c3)CC2)c2cc(C)ccc2O1 (configuration not stated) | inactive: -7.45%
19 | CCN1C(=O)c2ccccc2S(=O)(=O)c2ccc(C(=O)NCc3ccccc3OC)cc21 | inactive: 11.7%
20 | CC(C)c1ccc(NC(=O)c2cc3c(=O)[nH]c4ccccc4c3n2C)cc1 | inactive: 5.25%
21 | O=C(CSc1cn(CC(=O)N2CCCCC2)c2ccccc12)NCc1ccccc1Cl | inactive: 1.13%
22 | CCC(O)c1nc2ccccc2n1Cc1cc(C)ccc1C (configuration not stated) | inactive: 6.6%
23 | COc1ccccc1NS(=O)(=O)c1cn(C)c(C)n1 | inactive: 0.786%
24 | COc1ccc(N2CC(NC(=O)COc3cccc(C)c3)CC2=O)cc1OC (configuration not stated) | inactive: -5.24%
25 | COc1ccccc1N(CC(=O)Nc1ccccc1C(F)(F)F)S(=O)(=O)c1ccc(C)cc1 | inactive: 18.7%

Row | SMILES | activity change, negative = cytotoxicity
26 | Cc1ccc(C)c(N2CCN(C(=O)Cn3nc(C)c4sc5ccccc5c4c3=O)CC2)c1 | inactive: 5.81%
27 | COc1ccc(OC)c(NC(=O)C(C)n2c(=O)c(-c3ccccc3NC(C)=O)nc3ccccc32)c1 (configuration not stated) | inactive: -0.704%
28 | O=C(CC1Sc2ccccc2NC1=O)Nc1cccc(C(F)(F)F)c1 (configuration not stated) | inactive: 29.6%
29 | COc1ccc(-c2nc(CSCC(=O)NCCC(C)C)c(C)o2)cc1OC | inactive: -4.68%
30 | CCOc1ccc(NC(=O)CSc2nc3ccsc3c(=O)n2CCC(C)C)cc1 | inactive: 2.2%
31 | Cc1ccc(NC(=O)C2CCN(S(=O)(=O)c3ccc4c(c3)CCCC(=O)N4)CC2)cc1N(C)C | inactive: 4.99%
32 | COc1ccc(OC)c(NC(=O)C2CCN(S(=O)(=O)c3ccc4c(c3)CC(C)N4C(C)=O)CC2)c1 (configuration not stated) | inactive: 22.9%
33 | COc1cccc(C2C(C(N)=O)=C(C)Nc3ncnn32)c1 (configuration not stated) | inactive: -1.9%
34 | O=C(CSc1nc2c(oc3ccccc32)c(=O)n1-c1ccccc1)Nc1ccc(F)c(Cl)c1 | inactive: 19.1%
35 | COc1ccc(OC)c(NC(=O)C2=C(C)C(=O)OC23CCN(C(C)C)CC3)c1 | inactive: -19%
36 | Fc1ccc(N2CCN(c3ncnc4onc(-c5ccc(Cl)cc5)c34)CC2)cc1 | inactive: -7.42%
37 | O=C(c1ccc2c(c1)N(Cc1ccc(Cl)cc1)C(=O)c1ccccc1S2(=O)=O)N1CCOCC1 | inactive: 23.6%
38 | CCCCC(CC)CNC(=O)CCCCCn1c(=O)[nH]c2ccsc2c1=O (configuration not stated) | inactive: -23%
39 | CCc1ccc(-n2c(=O)c3ccccc3n(Cc3ccccc3C#N)c2=O)cc1 | inactive: 14.4%
40 | CCOc1ccccc1NC(=O)Cn1c(=O)n(Cc2ccco2)c(=O)c2sc3ccccc3c21 | inactive: -0.737%
41 | CCOC(=O)c1c(NC(C)=O)c2c3c(sc2n1Cc1cc(C)ccc1C)CCCC3 | inactive: 20.2%
42 | O=C(O)CCn1ccc2cc(S(=O)(=O)N3CCCCCC3)ccc21 | inactive: -9.7%
43 | CSc1ccc(CCNC(=O)c2csc3c2CCCCC3)cc1 | inactive: -2.6%
44 | Cc1cc(C)c(NC(=O)C(=O)NCCc2csc(-c3ccc(F)cc3)n2)c(C)c1 | inactive: 3.74%
45 | CN(C)c1ccc(CNC(=O)c2ccc3nc(Cc4ccccc4)oc3c2)cc1 | inactive: -26.2%
46 | Cc1nc2nc(NCc3ccc(Br)cc3)[nH]n2c(=O)c1Cc1ccccc1 | inactive: -2.71%
47 | CCCCOc1ccc(C(=O)Nc2cccc(-c3nc4ccccc4o3)c2C)cc1 | inactive: 20.2%
48 | Cc1cccn2c(=O)c(C(=O)N3CCN(c4ccccc4)CC3)cnc12 | inactive: -1.41%
49 | Cc1ccc(C(=O)c2c(N)c(C(=O)Nc3cccc(C(F)(F)F)c3)c3ccccn23)cc1 | inactive: 19.4%
50 | Cc1ccc(-n2c(=O)c3oc4ccccc4c3n(Cc3cccc(F)c3)c2=O)cc1C | inactive: -12.8%

Row | SMILES | activity change, negative = cytotoxicity
51 | COc1cc(NC(=O)c2nn(C)c3c2COc2ccccc2-3)cc(OC)c1OC | inactive: -3.72%
52 | CCOc1ccccc1NC(=O)C1=C(C)Nc2ncnn2C1c1ccco1 (configuration not stated) | inactive: -2.3%
53 | COc1ccc(CCNC(=O)c2ccc(Cn3c(SCc4ccccc4)nc4cccnc43)cc2)cc1 | inactive: 13.3%
54 | CCc1cnc2c(c1SC(C(C)=O)C(=O)N(C)C)c(=O)n(C)c(=O)n2C (configuration not stated) | inactive: -17.9%
55 | O=C(CCn1c(=O)c2ccccc2n(CC(=O)Nc2ccc(F)cc2)c1=O)NCCc1ccccc1 | inactive: 3.61%
56 | COc1ccc(CC(=O)NCC(c2cccs2)S(=O)(=O)c2ccc(F)cc2)cc1 (configuration not stated) | inactive: -3.98%
57 | O=C(CN1CCN(Cc2ccccc2F)C1=O)NCc1ccccc1 | inactive: 2.15%
58 | Cc1ccc(C(=O)N(Cc2ccco2)c2ccccn2)cc1 | inactive: 0.476%
59 | COc1ccccc1NC(=O)c1cnn(-c2ccccc2)c1-n1cccc1 | inactive: 2.73%
60 | CCc1ccc(C2CC(=O)Nc3c2c(=O)nc2c(C)cccn32)cc1 (configuration not stated) | inactive: -0.57%
61 | CC(C)c1ccc(NC(=O)c2ccc(CN3CC(=O)N4CCCCC4C3=O)cc2)cc1 (configuration not stated) | inactive: 17.9%
62 | COc1ccccc1C(=O)Nc1ccc(C(=O)OCc2cc(=O)n3c4c(sc3n2)CCCC4)cc1 | inactive: -0.77%
63 | CCOc1ccc(C2C(C(N)=O)=C(C)Nc3nc(SCc4ccccc4F)nn32)cc1 (configuration not stated) | inactive: 15.5%
64 | COc1ccc(-c2nc3sc(CCNC(=O)C(=O)Nc4ccccc4C#N)c(C)n3n2)cc1 | inactive: -5.14%
65 | CCOC(=O)c1ccccc1NC(=O)c1c(C)oc2ncnc(N3CCOCC3)c12 | inactive: 3.72%
66 | COc1cccc(-n2c(=O)c3c(C)c(C)sc3n(Cc3ccccc3C#N)c2=O)c1 | inactive: 3.91%
67 | Cc1cccc(C(=O)Nc2ccccc2OCc2cc(=O)n3cc(C)ccc3n2)c1 | inactive: 7.9%
68 | Cc1c(Cl)cccc1NC(=O)Cn1c(=O)n(Cc2ccco2)c(=O)c2oc3ccccc3c21 | inactive: -4.5%
69 | COC(=O)c1c(Oc2ccc(Br)cc2)nnc(-c2ccccc2)c1-c1ccccc1 | inactive: -12.4%
70 | Cc1ccc(CN2CCC(CNC(=O)Nc3cccc(C)c3C)C2)cc1 (configuration not stated) | inactive: -11.2%
71 | O=C1CC(c2ccc(Br)cc2)c2c(ccc3ccccc23)N1 (configuration not stated) | inactive: 0.194%
72 | CC(C)n1c(=O)c2oc3ccccc3c2n(CC(=O)Nc2ccccc2Cl)c1=O | inactive: 22.5%
73 | COc1ccccc1-c1c(C)nn2c(N3CCN(c4ccc(F)cc4)CC3)cc(C)nc12 | inactive: 21.3%
74 | CCN(CC)CCCNc1oc(-c2ccc(OC)cc2)nc1C#N | inactive: 14.7%
75 | COC(=O)c1cc2sccc2n1Cc1nc(-c2ccc(C)cc2)oc1C | inactive: -1.81%

Row | SMILES | activity change, negative = cytotoxicity
76 | Cc1cc(C)c(NC(=O)C2CCCN(C(=O)c3cnn(-c4ccccc4)c3-n3cccc3)C2)c(C)c1 (configuration not stated) | inactive: -22.9%
77 | CCc1ccccc1NC(=O)c1ccc2c(c1)c(C)c(C)n2Cc1ccccc1 | inactive: -22.3%
78 | CN(C(=O)CSc1nc2ccccc2n1CC(=O)N(C)C1CCCCC1)c1ccc(F)cc1 | inactive: -9.91%
79 | CC(=O)Nc1ccc2nc(SCCOc3ccccc3Cl)sc2c1 | inactive: -5.83%
80 | CCCCN(c1ccccc1)c1ncnc2c1cnn2-c1cccc(C)c1 | inactive: 2.45%
81 | CCOc1ccc(NC(=O)Cn2c(=O)n(-c3ccccc3)c(=O)c3c4c(sc32)CCCC4)cc1 | inactive: 17.2%
82 | CCc1nnc2c3ccccc3nc(N3CCN(c4cc(Cl)ccc4C)CC3)n12 | inactive: 5.2%
83 | O=C(COc1ccc(Br)cc1)Nc1ccc(C(=O)OC2CCCCC2)cc1 | inactive: -5.06%
84 | O=C(Cn1cc(S(=O)(=O)Cc2ccccc2Cl)c2ccccc21)Nc1ccc(F)cc1F | inactive: -25.1%
85 | Cc1ccc(Cn2c(CO)cnc2SCC(=O)Nc2cccc(F)c2)cc1 | inactive: 20.3%
86 | COc1ccc(-c2noc(-c3ccc(NCCc4ccccc4)c([N+](=O)[O-])c3)n2)cc1 | inactive: -1.83%
87 | CCOc1ccc(S(=O)(=O)N2CCC(n3c(C)nc4cccnc43)CC2)cc1 | inactive: -26.1%
88 | COC(=O)c1ccc2c(c1)N(Cc1cc(C)ccc1C)C(=O)c1ccccc1S2(=O)=O | inactive: 0.095%
89 | O=C(Cn1ncc2c(Cl)cccc21)NCc1cccc(F)c1 | inactive: -0.747%
90 | CCOc1ccc(CNC(=O)c2ccc3c(c2)N(Cc2ccccc2)CCS3)cc1 | inactive: -3.54%
91 | Cc1oc2ncn(CC(C)C)c(=O)c2c1C(=O)NCCCN(C)Cc1ccccc1 | inactive: 7.96%
92 | COc1cc(-c2nnc(SCCOc3ccccc3)o2)cc(OC)c1OC | inactive: -6.01%
93 | CCOC(=O)Cn1c(=O)oc2cc(S(=O)(=O)Nc3ccccc3F)ccc21 | inactive: -11.1%
94 | CCOC(=O)c1c(SCC(=O)Nc2cccc(C)c2C)nc(=O)[nH]c1C | inactive: -4.07%
95 | Cc1oc2c(C)c3oc(=O)c(CCC(=O)N4CCCCC4)c(C)c3cc2c1C | inactive: -20.1%
96 | Cc1cc2oc(C(=O)Nc3ccc(S(=O)(=O)N(C)c4ccccc4)cc3)cc(=O)c2cc1C | inactive: -1.67%
97 | O=S(=O)(c1ccc2nc(Nc3ccc(Br)cc3F)ccc2c1)N1CCCCC1 | inactive: 12.6%
